Measurements from paper PMC4196162.
These are yes or no findings as the source states them, for the method shown. Binding seen in cells or lysates may run through a third protein. Some binding calls cover weakened binding; strength is not graded here.

By UniProt entry, the sequences of proteins in these tests, tags left out.
UniProt O89090: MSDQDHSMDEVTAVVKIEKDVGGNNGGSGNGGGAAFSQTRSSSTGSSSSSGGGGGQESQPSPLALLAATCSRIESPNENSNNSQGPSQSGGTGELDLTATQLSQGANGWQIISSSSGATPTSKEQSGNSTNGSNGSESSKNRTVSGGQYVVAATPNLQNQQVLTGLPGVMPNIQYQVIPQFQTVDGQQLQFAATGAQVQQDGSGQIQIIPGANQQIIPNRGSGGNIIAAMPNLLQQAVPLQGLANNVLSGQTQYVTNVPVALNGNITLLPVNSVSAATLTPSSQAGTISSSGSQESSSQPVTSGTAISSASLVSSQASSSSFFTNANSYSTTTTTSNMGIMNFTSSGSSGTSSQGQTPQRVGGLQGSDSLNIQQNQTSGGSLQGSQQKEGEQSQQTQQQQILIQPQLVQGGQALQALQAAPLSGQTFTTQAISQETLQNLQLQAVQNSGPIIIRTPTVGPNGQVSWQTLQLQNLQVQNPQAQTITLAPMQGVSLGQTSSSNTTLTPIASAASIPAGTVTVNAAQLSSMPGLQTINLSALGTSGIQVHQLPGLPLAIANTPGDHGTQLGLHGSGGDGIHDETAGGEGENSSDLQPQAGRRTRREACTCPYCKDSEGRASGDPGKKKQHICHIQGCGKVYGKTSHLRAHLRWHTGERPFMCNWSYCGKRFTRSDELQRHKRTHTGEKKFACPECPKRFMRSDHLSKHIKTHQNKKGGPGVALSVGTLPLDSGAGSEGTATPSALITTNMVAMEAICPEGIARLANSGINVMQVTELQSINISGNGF
UniProt Q02248: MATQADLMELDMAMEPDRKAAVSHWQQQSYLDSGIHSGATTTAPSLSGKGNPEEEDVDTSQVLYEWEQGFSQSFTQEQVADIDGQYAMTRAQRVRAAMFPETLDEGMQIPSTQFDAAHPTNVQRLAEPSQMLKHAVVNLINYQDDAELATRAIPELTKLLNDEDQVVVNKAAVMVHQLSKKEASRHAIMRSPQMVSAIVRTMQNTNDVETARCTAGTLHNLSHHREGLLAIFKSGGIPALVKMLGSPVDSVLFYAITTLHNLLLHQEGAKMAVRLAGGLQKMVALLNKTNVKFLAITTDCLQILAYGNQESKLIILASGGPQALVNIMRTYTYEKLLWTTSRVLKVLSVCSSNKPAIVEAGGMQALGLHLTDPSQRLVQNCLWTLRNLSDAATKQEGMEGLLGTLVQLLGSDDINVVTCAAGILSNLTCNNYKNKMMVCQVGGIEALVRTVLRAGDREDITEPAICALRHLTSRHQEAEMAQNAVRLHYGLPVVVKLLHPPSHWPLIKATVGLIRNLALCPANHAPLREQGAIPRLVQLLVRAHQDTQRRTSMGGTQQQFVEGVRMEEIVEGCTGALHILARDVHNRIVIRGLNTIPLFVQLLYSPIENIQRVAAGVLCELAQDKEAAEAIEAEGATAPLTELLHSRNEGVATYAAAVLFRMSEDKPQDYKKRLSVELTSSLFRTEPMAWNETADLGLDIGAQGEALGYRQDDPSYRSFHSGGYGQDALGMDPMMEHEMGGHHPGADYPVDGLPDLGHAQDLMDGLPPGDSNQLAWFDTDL
UniProt P08047: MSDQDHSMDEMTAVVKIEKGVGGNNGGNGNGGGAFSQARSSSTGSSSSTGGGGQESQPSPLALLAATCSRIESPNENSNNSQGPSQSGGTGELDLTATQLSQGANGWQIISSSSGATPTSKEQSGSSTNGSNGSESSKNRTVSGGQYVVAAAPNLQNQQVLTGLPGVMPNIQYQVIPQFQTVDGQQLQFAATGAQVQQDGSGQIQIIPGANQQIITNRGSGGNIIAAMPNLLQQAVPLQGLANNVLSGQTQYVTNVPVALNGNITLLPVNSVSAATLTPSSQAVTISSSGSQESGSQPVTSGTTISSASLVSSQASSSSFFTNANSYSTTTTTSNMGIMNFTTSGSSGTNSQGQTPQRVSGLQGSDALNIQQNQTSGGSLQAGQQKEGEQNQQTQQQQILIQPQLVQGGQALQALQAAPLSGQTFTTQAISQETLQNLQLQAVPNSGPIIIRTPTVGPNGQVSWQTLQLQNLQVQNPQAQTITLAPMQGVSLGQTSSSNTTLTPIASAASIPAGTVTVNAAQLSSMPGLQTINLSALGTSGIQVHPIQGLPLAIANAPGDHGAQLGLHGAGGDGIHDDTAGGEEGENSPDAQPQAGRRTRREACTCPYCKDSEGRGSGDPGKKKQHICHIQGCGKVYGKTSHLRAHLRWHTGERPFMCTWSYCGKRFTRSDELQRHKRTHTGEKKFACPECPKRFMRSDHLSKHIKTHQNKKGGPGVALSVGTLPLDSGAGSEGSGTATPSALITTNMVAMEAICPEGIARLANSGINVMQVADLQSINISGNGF
UniProt P02340: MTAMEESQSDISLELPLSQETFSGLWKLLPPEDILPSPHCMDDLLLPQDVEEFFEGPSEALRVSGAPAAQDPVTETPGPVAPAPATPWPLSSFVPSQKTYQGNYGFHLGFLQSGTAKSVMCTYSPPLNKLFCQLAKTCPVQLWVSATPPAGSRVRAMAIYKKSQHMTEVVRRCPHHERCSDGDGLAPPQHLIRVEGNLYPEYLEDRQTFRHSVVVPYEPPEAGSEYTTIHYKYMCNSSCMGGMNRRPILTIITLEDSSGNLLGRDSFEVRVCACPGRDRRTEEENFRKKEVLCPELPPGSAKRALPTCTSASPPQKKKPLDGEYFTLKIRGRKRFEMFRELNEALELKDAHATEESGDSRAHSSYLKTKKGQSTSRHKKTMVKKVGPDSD
UniProt P03372: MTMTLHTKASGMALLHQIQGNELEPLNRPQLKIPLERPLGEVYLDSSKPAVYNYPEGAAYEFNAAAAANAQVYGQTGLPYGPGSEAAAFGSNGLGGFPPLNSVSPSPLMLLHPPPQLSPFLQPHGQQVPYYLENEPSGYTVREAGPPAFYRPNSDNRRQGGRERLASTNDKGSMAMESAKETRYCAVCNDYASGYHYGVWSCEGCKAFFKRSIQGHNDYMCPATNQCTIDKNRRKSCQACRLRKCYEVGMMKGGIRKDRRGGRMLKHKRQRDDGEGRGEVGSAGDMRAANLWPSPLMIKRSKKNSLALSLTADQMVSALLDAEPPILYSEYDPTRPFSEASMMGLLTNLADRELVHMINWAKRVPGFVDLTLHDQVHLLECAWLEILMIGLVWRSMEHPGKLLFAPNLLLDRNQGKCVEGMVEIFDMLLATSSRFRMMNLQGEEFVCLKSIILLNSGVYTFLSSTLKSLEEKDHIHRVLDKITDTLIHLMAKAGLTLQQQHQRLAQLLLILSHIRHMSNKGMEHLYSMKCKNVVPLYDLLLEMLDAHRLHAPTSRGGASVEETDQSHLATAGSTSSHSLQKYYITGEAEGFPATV
UniProt P19785: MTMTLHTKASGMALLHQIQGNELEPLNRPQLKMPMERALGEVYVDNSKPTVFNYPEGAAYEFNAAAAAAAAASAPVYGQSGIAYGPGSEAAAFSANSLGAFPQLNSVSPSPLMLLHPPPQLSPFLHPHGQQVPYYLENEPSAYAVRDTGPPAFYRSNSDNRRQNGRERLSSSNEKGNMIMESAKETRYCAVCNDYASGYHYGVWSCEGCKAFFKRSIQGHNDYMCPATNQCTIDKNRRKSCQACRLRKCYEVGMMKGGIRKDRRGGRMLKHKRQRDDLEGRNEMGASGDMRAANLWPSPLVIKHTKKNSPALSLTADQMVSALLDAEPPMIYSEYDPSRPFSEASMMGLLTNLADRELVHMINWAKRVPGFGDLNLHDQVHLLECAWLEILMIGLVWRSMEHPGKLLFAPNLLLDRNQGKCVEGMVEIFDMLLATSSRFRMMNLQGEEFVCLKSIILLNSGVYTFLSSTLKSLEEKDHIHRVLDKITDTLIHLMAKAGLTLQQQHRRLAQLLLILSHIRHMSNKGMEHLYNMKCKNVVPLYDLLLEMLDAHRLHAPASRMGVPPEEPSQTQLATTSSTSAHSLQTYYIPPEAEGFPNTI

Tests used:
[1] = biological target: T1, Pygo2 (human (endogenous in MCF7 and T47D)) (UniProt Q9BRQ0); assay: co-IP; endogenous proteins, T47D whole cell lysates, Protein A sepharose; Western blot
T1 sequence: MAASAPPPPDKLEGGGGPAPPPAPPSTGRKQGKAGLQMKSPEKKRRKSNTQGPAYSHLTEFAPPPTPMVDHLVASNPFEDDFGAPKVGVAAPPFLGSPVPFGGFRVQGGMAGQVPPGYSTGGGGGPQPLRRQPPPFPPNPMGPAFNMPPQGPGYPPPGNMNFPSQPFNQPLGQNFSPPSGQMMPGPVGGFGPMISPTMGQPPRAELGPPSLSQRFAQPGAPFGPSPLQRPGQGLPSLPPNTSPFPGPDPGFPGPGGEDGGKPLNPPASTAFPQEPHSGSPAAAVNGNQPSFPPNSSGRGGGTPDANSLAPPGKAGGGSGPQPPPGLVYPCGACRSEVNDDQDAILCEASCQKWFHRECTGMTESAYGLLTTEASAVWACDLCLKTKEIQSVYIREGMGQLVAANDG

[2] = biological target: T1, Pygo2 (human (endogenous in MCF7 and T47D)); assay: co-IP; endogenous proteins, MCF7 whole cell lysates, Protein A sepharose; mouse and rabbit IgG as negative controls; Western blot
[3] = biological target: T2, BCL9-2 (BCL9L, B-Cell Lymphoma 9-like) (human (endogenous in MCF7 and T47D)) (UniProt Q86UU0); assay: co-IP; endogenous proteins, T47D whole cell lysates, Protein A sepharose; Western blot
T2 sequence: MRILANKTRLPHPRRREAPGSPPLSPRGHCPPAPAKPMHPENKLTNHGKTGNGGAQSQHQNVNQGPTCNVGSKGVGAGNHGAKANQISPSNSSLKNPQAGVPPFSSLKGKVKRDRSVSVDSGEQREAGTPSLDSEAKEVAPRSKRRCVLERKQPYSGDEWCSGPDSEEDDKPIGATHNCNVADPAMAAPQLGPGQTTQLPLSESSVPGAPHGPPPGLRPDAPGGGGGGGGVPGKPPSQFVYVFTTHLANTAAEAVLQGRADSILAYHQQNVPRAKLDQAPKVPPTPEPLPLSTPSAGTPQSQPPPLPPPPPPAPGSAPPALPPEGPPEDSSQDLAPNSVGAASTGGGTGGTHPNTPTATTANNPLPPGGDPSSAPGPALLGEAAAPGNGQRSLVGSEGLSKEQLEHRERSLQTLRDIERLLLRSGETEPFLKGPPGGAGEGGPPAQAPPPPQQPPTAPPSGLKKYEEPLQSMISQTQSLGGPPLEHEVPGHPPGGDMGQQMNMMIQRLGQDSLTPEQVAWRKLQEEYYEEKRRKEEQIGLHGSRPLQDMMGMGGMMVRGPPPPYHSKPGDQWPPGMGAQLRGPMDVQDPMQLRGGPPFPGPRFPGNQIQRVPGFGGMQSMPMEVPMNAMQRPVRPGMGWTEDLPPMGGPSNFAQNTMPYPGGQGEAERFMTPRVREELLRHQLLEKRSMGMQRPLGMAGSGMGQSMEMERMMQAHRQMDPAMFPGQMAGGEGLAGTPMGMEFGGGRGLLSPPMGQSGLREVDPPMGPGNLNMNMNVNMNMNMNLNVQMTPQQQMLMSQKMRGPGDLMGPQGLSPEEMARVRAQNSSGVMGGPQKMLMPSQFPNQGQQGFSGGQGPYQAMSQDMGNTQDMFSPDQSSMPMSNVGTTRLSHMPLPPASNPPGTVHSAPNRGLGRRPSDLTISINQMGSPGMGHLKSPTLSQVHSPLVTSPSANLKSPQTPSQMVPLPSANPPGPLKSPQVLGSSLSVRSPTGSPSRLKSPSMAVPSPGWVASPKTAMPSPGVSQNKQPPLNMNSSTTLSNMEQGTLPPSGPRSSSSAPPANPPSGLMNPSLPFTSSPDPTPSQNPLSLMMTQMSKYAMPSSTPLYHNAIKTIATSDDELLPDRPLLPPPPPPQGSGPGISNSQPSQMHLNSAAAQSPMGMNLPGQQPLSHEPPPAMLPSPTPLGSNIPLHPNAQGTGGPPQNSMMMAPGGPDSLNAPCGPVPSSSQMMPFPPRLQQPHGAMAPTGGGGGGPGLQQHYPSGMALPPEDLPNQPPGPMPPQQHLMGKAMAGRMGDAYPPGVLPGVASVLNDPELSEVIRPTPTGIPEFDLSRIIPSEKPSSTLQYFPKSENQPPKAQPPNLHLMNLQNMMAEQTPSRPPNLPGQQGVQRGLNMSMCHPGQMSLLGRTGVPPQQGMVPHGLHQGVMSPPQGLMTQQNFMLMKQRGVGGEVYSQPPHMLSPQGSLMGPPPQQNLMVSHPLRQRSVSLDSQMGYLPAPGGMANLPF

[4] = biological target: ß-catenin (human (endogenous in MCF7 and T47D)) (UniProt P35222); assay: as above
[5] = biological target: T2, BCL9-2 (BCL9L, B-Cell Lymphoma 9-like) (human (endogenous in MCF7 and T47D)); assay: co-IP; endogenous proteins, MCF7 whole cell lysates, Protein A sepharose; mouse and rabbit IgG as negative controls; Western blot
[6] = biological target: ß-catenin (human (endogenous in MCF7 and T47D)) (UniProt P35222); assay: as above
[7] = biological target: T3, BCL9-2 in primary K19-BCL9-2 mouse mammary tumor cells (mouse (endogenous in primary K19-BCL9-2 mouse tumor cells)) (UniProt Q67FY2); assay: co-IP; primary K19-BCL9-2 mouse mammary tumor cells, whole cell lysates, Protein A sepharose; Western blot
T3 sequence: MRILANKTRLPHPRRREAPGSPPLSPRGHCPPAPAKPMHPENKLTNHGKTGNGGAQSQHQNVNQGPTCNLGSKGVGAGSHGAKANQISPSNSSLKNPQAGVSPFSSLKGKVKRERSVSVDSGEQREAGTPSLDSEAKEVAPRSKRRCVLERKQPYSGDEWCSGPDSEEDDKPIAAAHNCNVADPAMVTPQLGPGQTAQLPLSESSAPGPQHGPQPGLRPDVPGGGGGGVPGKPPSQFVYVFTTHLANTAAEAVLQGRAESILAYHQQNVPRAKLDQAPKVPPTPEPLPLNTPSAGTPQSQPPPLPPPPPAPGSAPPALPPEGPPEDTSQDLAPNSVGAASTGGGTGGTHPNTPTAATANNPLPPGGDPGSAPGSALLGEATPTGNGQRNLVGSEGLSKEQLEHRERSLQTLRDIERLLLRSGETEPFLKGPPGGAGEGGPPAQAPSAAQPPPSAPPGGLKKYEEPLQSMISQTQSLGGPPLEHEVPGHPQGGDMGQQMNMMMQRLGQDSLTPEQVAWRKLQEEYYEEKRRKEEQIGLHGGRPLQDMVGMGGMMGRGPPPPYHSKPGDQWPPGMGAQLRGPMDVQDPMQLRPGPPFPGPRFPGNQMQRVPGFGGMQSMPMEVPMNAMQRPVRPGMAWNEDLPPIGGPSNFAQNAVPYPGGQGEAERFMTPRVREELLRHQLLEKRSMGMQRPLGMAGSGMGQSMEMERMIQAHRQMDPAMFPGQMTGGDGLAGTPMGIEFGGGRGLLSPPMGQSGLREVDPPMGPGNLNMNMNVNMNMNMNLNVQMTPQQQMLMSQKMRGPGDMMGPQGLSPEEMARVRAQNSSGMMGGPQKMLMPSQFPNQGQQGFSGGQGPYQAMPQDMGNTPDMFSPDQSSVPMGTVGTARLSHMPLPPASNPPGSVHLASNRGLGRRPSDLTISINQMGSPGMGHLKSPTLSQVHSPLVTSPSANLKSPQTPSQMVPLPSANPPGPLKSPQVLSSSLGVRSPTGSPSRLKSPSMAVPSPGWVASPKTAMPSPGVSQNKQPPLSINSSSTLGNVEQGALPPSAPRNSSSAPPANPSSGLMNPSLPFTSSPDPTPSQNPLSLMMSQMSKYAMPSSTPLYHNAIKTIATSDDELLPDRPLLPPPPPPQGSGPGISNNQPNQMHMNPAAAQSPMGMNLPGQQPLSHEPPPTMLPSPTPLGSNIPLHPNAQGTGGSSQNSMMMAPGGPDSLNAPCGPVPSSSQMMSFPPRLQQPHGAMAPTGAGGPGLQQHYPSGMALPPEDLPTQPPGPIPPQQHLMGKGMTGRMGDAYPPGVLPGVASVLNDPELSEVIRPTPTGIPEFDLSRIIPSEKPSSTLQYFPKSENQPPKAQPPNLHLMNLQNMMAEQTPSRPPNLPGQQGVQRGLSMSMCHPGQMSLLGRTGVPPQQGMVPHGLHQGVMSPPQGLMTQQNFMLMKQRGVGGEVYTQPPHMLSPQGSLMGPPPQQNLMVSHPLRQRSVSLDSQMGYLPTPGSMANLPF

[8] = biological target: Sp1 (mouse) (mouse (endogenous in primary K19-BCL9-2 mouse tumor cells)) (UniProt O89090); assay: as above
[9] = biological target: ß-catenin (mouse) (mouse (endogenous in primary K19-BCL9-2 mouse tumor cells)) (UniProt Q02248); assay: as above

Substance | binding [1] | binding [2] | binding [3] | binding [5] | binding [7] | also measured
Sp1 (specificity protein 1) (from UniProt P08047 1-785) | binds weakly | binds weakly |  |  |  | 
p53 (from UniProt P04637 1-393) |  |  | no binding | no binding |  | binding [4]: no binding; binding [6]: no binding
p53 (mouse) (from UniProt P02340 1-390) |  |  |  |  | no binding | binding [9]: no binding

The next lines start with results.

binding [1] | binding [2] | binding [3] | binding [5] | binding [7] | Substance | also measured
no binding | no binding | no binding | no binding |  | estrogen receptor alpha (ER) (from UniProt P03372 1-595) | 
 |  |  |  | no binding | estrogen receptor alpha (ER) (mouse) (from UniProt P19785 1-599) | binding [8]: no binding
